Laboratory results published in PubChem BioAssay (Tox21).
Where “and” joins values, the source holds several entries; their conditions need not be identical. Identical values can stand only once. Inconclusive means that the source gave no clear call. Such entries were picked first, then a sample of the others. Potencies beside an inconclusive call are fits to weak or partial responses and may not hold up. Calls of active or inactive are those of the source. The call rests on the fitted dose curve; in most records, active means well fitted cell-killing curve with a large enough effect in the repeat runs; inconclusive means weak or mixed curves, or effect the other way; inactive means no such curve, though single readings can be large or run the other way.

Experiment: qHTS assay to identify small molecule agonists of the estrogen receptor alpha (ER-alpha) signaling pathway in the presence of an antagonist - cell viability counter screen (AID 1259386);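 further: cells exposed to compounds for 22 h at 37 °C before the viability read; nearly all actives have a fitted effect of over 30% in size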
Conditions: VM7Luc4E2 viability, CellTiter-Fluor fluorescence, 22 h; series mostly up to 92.4 µM; activity change, negative = cytotoxicity: at the top concentration
Text: National Center for Advancing Translational Sciences [NCATS]
NIH Chemical Genomics Center [NCGC]
U.S. Environmental Protection Agency [EPA]
National Institutes of Environmental Health Sciences [NIEHS]
National Toxicology Program [NTP]
U.S. Food and Drug Administration [FDA]
Estrogen receptor (ER), a member of nuclear hormone receptor plays an important role in development, metabolic homeostasis and reproduction. Two subtypes of ER, ER-alpha and ER-beta, have similar expression patterns with some uniqueness in both types. Endocrine disrupting chemicals (EDCs) and their interactions with steroid hormone receptors like ER causes disruption of normal endocrine function. Therefore, it is important to understand the effect of environmental chemicals in ER signaling pathway. For identifying ER agonists, VM7Luc4E2 cell line has been used in the current assay.
VM7Luc4E2 cell line (provided by Denison MS, University of California) endogenously expresses full-length ER-alpha and is stably transfected with a plasmid containing four estrogen responsive elements (ERE) upstream of a luciferase reporter gene. This current screening for measuring luciferase reporter gene activity using VM7Luc4E2 cells against Tox21 10K library collection is a confirmation study on agonist mode screening in presence of ER-antagonist (ICI-182,780) at 10.0nM final concentration. The cytotoxicity of the compounds was tested in parallel by measuring the cell viability using CellTiter-Fluor assay system (Promega, Madison, WI) in the same wells.
Tox21 Assay Protocol Summary:
VM7Luc4E2 cells were cultured in phenol red free assay medium containing 10% charcoal stripped FBS for 5 days prior to the assay. The cells were dispensed at 4,000 cells in 4uL of assay medium per well into white wall/solid-bottom 1536-well plates (Corning Life Sciences, Corning, NY) using a Multidrop Combi (Thermo Fisher Scientific Inc., Waltham, MA) dispenser. After the assay plates were incubated at 37C and 5% CO2 for 24hr, 1uL of 10.0nM (final concentration) ICI-182,780 or assay buffer was added using two separate tips of Flying Reagent Dispenser (FRD, Aurora Discovery, San Diego, CA). Then 23nL of compounds dissolved in DMSO at 15 concentrations and positive controls or DMSO only was transferred to the assay plates by a Pintool station (Wako, San Diego, CA). The assay plates were incubated at 37C and 5% CO2 for 22hr. After 21hr incubation at 37C, 1uL/well CellTiter-Fluor reagent (Promega Corporation, Madison, WI) was added to each well using FRD and after 1hr incubation at 37C and 5% CO2, the fluorescence signal was measured on ViewLux plate reader (PerkinElmer, Shelton, CT).
On the % scale 0 is the no-effect control and ±100 the full control effect; potency means the concentration at half of the fitted maximal effect; tags describe the fitted curve by direction and shape.

| SMILES | Potency | activity change, negative = cytotoxicity |
| --- | --- | --- |
| CCc1oc2ccccc2c1C(=O)c1cc(I)c(O)c(I)c1 | inconclusive: 33.5 µM [cytotoxic] | – |
| CN1CCN2c3ccccc3Cc3ccccc3C2C1 (stereo not given) | inconclusive: 33.5 µM [cytotoxic, partial curve] | – |
| Nc1nc2ccccc2n1Cc1ccc(F)cc1 | active: 29.8 µM | – |
| CC(=O)CC(C)C | – | inactive: -0.873% |
| Cc1cc(O)c2c(c1)C(=O)c1cc(O)cc(O)c1C2=O | inconclusive: 1.68 µM [cytotoxic, partial curve] and active: 15.4 µM | – |
| CC(=O)Oc1ccc(C(c2ccc(OC(C)=O)cc2)c2ccccn2)cc1 | inconclusive: 216 nM [cytotoxic, full curve] and inconclusive: 841 nM [cytotoxic, full curve] | – |
| CCOC(=O)N1CCC(n2c(=O)[nH]c3cc(Cl)ccc32)CC1 | active: 23.7 µM | – |
| Nc1ccc(Cl)cc1Cl | inactive | – |
| CO/N=C1\CN(c2nc3c(cc2F)c(=O)c(C(=O)O)cn3C2CC2)CC1CN (stereo not given) | inconclusive: 13.3 µM [cytotoxic, full curve, poor fit] | – |
| Cc1ccc(NC(=O)c2ccc(CN3CCN(C)CC3)cc2)cc1Nc1nccc(-c2cccnc2)n1 | inconclusive: 11.9 µM [cytotoxic, partial curve] | – |
| CCOC(=O)/C=C(C)/C=C/C=C(C)/C=C/c1c(C)cc(OC)c(C)c1C | inconclusive: 33.5 µM [cytotoxic, partial curve, poor fit] | – |
| O=[N+]([O-])c1ccc(O)cc1 | active: 56.6 µM and active: 43.3 µM and active: 48.6 µM | – |
| COc1cc(C(=O)NC2CCN(C)CC2)ccc1Nc1ncc2c(n1)N(C1CCCC1)CC(F)(F)C(=O)N2C | inconclusive: 4.99 µM [cytotoxic, full curve] | – |
| CCN(CC)CCNc1ccc(CO)c2sc3ccccc3c(=O)c12 | active: 10.6 µM | – |
| Oc1ccccc1O | inconclusive: 69.4 µM [cytotoxic, single point] | – |
| Oc1ccc(Cl)cc1Sc1cc(Cl)ccc1O | inconclusive: 24.3 µM [cytotoxic, full curve] and active: 29.8 µM | – |
| CN(C)c1ccc2nc3ccc(=[N+](C)C)cc-3sc2c1 | active: 33 µM and active: 27.3 µM and active: 15 µM | – |
| NNC(=O)OCc1ccccc1 | – | inactive: -3.23% |
| C[C@H](CCC(=O)O)[C@H]1CC[C@H]2[C@@H]3CC[C@@H]4C[C@H](O)CC[C@]4(C)[C@H]3CC[C@]12C | inactive | – |
| O=[N+]([O-])c1ccc(O/N=C/c2cc(Br)c(O)c(Br)c2)c([N+](=O)[O-])c1 | active: 27.2 µM | – |

| SMILES | Potency | activity change, negative = cytotoxicity |
| --- | --- | --- |
| CC1=CC2C3CC(C=C3C)C2C1 (stereo not given) | inconclusive: 2.73 µM [cytotoxic, partial curve] | – |
| COC(=O)CC#N | – | inactive: -0.367% |
| Cc1cc(SC2=C(O)C[C@@](CCc3ccc(N)cc3)(C(C)C)OC2=O)c(C(C)(C)C)cc1CO | – | inactive: 4.31% |
| CCCN(CCc1cccs1)[C@H]1CCc2c(O)cccc2C1 | – | inactive: -11.7% [at 42.5 µM] |
| CCOc1ccc(Cc2nccc3cc(OCC)c(OCC)cc23)cc1OCC | inconclusive: 11.9 µM [cytotoxic, full curve] | – |
| Cc1ccc(C=O)s1 | – | inactive: 0.72% |
| COc1ccc(C(=O)/C(Br)=C\C(=O)O)cc1 | inconclusive: 68.6 µM [cytotoxic, single point] | – |
| CC(=O)C1(C)CC2=C(CCCC2(C)C)CC1C (stereo not given) | inconclusive: 2.43 µM [cytotoxic, single point] | – |
| CCCCCCCCCCCCCC | – | inactive: 0.819% |
| Clc1nc(Cl)c(Cl)c(Cl)c1Cl | inactive | – |
| C=C1C(=C/C=C2\CCC[C@]3(C)[C@@H]([C@H](C)/C=C/[C@@H](O)C4CC4)CC[C@@H]23)C[C@@H](O)C[C@@H]1O | inconclusive: 33.5 µM [cytotoxic, single point] | – |
| Nc1ccccc1Nc1ccccc1 | inconclusive: 61.3 µM [cytotoxic] | – |
| CCOC(=O)c1c(N)sc2c1CCN(Cc1ccccc1)C2 | inconclusive: 29.8 µM [cytotoxic, partial curve, poor fit] | – |
| O=S(=O)(O)c1ccccc1/C=C/c1ccc(-c2ccc(/C=C/c3ccccc3S(=O)(=O)O)cc2)cc1 | inconclusive: 49.2 µM [rising, partial curve] | – |
| Nc1ccc2cc3ccc(N)cc3nc2c1 | inconclusive: 27.3 µM [rising, partial curve] and inconclusive: 23.7 µM [rising, partial curve] | – |
| CC(C)CCCCCCCCCCCCCCC(=O)O | inconclusive: 24.3 µM [cytotoxic, partial curve, poor fit] | – |
| O=C1Nc2ccccc2C1(c1ccc(O)cc1)c1ccc(O)cc1 | active: 1.37 µM and active: 944 nM | – |
| CCCCC/C=C\C/C=C\CCCCCCCC(=O)NC(C)c1ccccc1 (stereo not given) | inconclusive: 6.68 µM [cytotoxic, full curve] | – |
| O=C(O)c1cc(N=Nc2ccc([N+](=O)[O-])cc2)ccc1O | inconclusive: 33.7 µM [cytotoxic, partial curve, poor fit] | – |
| C=C(C)C(=O)OCCOC(=O)C(=C)C | inactive | – |
